Test results taken from PubChem BioAssay AID624417 (National Center for Advancing Translational Sciences (NCATS), 2012).
Among all 410,000 compounds or so, about 6,400 (1.6%) were called active. Inconclusive means that the source gave no clear call. Such entries were picked first, then a sample of the others. Calls come from the whole dose curve; as a rule, active = well fitted inhibition curve with a large enough effect; inconclusive = small, poorly fitted or top-dose-only effect; inactive = no such curve, though single readings can be large or run the other way. Potencies beside an inconclusive call are fits to weak or partial responses and may not hold up.
% is set by controls: 0 for no effect and ±100 for the full control effect; potency is the fitted concentration of half-maximal effect; tags give direction and shape of the fitted curve.
Note: nearly all actives have a fitted effect of over 55% in size.

These molecules were tested against Glucagon-like peptide 1 receptor (Homo sapiens) (UniProt P43220) (assay: qHTS of GLP-1 Receptor Inverse Agonists (Inhibition Mode)). Conditions: HEK293 GLP-1R CRE-luciferase, luminescence, 24 h, GLP-1R form is constitutively active; activity change, negative = inhibition: at 38.3 µM (top of the series) unless noted.
UniProt P43220, sequence (P43220 whole entry, looked up): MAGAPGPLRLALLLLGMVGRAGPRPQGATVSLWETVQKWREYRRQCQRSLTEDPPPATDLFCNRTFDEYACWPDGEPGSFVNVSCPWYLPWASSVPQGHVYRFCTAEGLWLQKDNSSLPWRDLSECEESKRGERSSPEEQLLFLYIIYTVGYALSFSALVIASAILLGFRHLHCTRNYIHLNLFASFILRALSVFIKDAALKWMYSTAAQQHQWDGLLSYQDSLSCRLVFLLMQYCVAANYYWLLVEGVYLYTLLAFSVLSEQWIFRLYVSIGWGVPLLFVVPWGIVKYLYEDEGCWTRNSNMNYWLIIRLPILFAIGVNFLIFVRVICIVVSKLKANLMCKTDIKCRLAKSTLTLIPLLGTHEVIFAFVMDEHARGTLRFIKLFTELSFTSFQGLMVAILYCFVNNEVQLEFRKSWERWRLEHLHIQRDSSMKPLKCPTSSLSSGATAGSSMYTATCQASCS
Method in brief: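 Inverse agonism was detected as reduced cAMP-driven luciferase luminescence after 24 h compound treatment. The cells were HEK293 clones expressing constitutively active human GLP-1R with the reporter. Reporter-only and GPR119 cell lines served as counterscreen controls.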
For CC(=O)Oc1ccccc1C(=O)C=Cc1cccc([N+](=O)[O-])c1, the Potency was inconclusive: 15.8 µM [inhibitor, single point].
Cc1cc(NC(=O)Nc2ccc(Cl)cc2)no1 was tested, and the Potency was inconclusive: 11.2 µM [inhibitor, partial curve].
CCCCCCSc1cccc(-c2nc3ccc(C)cn3c2NC2CCCCC2)c1 was tested, and the Potency was inconclusive: 10 µM [inhibitor, partial curve, poor fit].
CN(CC1CCCO1)S(=O)(=O)c1ccc(C(=O)Nc2ccc([N+](=O)[O-])cc2)cc1 (stereo unspecified) was tested, and the Potency was inconclusive: 7.08 µM [inhibitor, partial curve, poor fit].
In the case of COC(=O)[C@@]12C[C@@H](CC(=O)NCCc3ccccc3OC)C(=O)N(Cc3ccco3)C1=CCC(C)(C)C2, the Potency is reported as inconclusive: 10 µM [inhibitor, partial curve].
CCOC(=O)C(C(=O)Nc1cccc(C)n1)C1CCCCC1 (stereo unspecified) was tested, and the Potency was inconclusive: 8.91 µM [inhibitor, partial curve, poor fit].
Cc1c(Br)c([N+](=O)[O-])nn1C(C)C(=O)N1CCCc2ccccc21 (stereo unspecified) was tested, and the Potency was active: 10 µM.
In the case of COc1ccccc1NS(=O)(=O)c1ccc(NN=C2CCCCC2)c([N+](=O)[O-])c1, the Potency is reported as inconclusive: 28.2 µM [inhibitor, single point].
CC(C)(C)OC(=O)C[C@@H]1C/C=C\C[C@@H](CC(=O)N(CCO)Cc2ccccc2)C(=O)N[C@H](Cc2c[nH]c3ccccc23)COC1=O was tested, and the Potency was inconclusive: 31.6 µM [inhibitor, single point].
In the case of CC(C)(C)c1ccc(OCc2nc(-c3ccccn3)no2)c(Br)c1, the Potency is reported as inconclusive: 12.6 µM [inhibitor, single point].
For COc1ccc(S(=O)(=O)N2CCCC2c2cccs2)cc1 (stereo unspecified), the Potency was inconclusive: 10 µM [inhibitor, partial curve, poor fit].
In the case of COC(=O)c1c(NC(=O)c2ccc(C)o2)sc2c1CCCCC2, the Potency is reported as inconclusive: 28.2 µM [inhibitor, single point].
In the case of COc1ccc(OC2CCN(C(=O)Nc3ccc(C)cc3)CC2)cc1, the Potency is reported as inconclusive: 10 µM [inhibitor, partial curve, poor fit].
O=C(NCC(c1cccs1)N1CCOCC1)c1ccccc1NS(=O)(=O)c1ccc(Cl)cc1 (stereo unspecified) was tested, and the Potency was inconclusive: 10 µM [inhibitor, single point].
With O=C(OCc1cn([C@@H]2CN(CC3CCCCC3)[C@@H](c3ccccc3)C[C@H]2O)nn1)c1ccccc1 the Potency was “inactive”.
For COc1ccc(OCCn2cc(C(=O)C3CCCCC3)c3ccccc32)cc1, the Potency was inconclusive: 15.8 µM [inhibitor, partial curve, poor fit].
For O=C(c1ccc2c(c1)CCN2S(=O)(=O)c1ccccc1)N1CCN(c2ccc(F)cc2)CC1, the Potency was inconclusive: 11.2 µM [inhibitor, single point].
For CC1=C(C(=O)NC(C)c2ccccc2)C2(CCC(C)CC2)OC1=O (stereo unspecified), the Potency was “inactive”.
Cc1cc(C)c(C)c(S(=O)(=O)NCc2ccc(C(=O)N3CCCCC3)cc2)c1C was tested, and the Potency was inconclusive: 28.2 µM [inhibitor, single point].
COc1ccc(/C=N/NC(=O)COc2ccc(Cl)cc2Cl)cc1Cn1nc(C)cc1C was tested, and the Potency was inconclusive: 0.708 µM [inhibitor, full curve, poor fit].
With COc1ccccc1CN1CCN(Cc2ccc3ccccc3c2)CC1 the Potency was inconclusive: 10 µM [inhibitor, partial curve].
With N#CC(C#N)c1ccnc2ccccc12 the Potency was inconclusive: 6.31 µM [inhibitor, partial curve, poor fit].
COc1cccc(NC(=O)CN2C(=O)NC(Cc3c[nH]c4ccccc34)C2=O)c1 (stereo unspecified) was tested, and the Potency was inconclusive: 11.2 µM [inhibitor, partial curve, poor fit].
CC(=O)c1cc2c(cc1NC(=O)c1c(C)nn(-c3ccc(C)cc3)c1-n1cccc1)OCO2 was tested, and the Potency was “inactive”.
CN1CCN(C(CNC(=O)C(=O)Nc2ccc3c(c2)OCO3)c2ccc(F)cc2)CC1 (stereo unspecified) was tested, and the Potency was inconclusive: 10 µM [inhibitor, single point].
With CCCN1CCC(NCc2cn(C)nc2-c2ccc(Oc3ccccc3)cc2)CC1 the Potency was inconclusive: 3.16 µM [inhibitor, partial curve, poor fit].
For O=C(Nc1ccccn1)c1ccc(S(=O)(=O)N2CCCCCC2)cc1, the Potency was inconclusive: 28.2 µM [inhibitor, single point].
With Cc1cc(C)cc(N(C(=O)c2csnn2)C(C(=O)NC2CCCC2)c2ccccn2)c1 (stereo unspecified) the Potency was inconclusive: 28.2 µM [inhibitor, single point].
For CC1C(=O)N(Cc2cn(CCC3OCCCO3)nn2)CCS(=O)(=O)N1Cc1ccc(-c2ccc(Cl)cc2)cc1 (stereo unspecified), the Potency was inconclusive: 10 µM [inhibitor, partial curve, poor fit].
COc1ccc(Cc2c(C(C)(C)C)nc3ccc(Cl)cn23)c(C)c1 was tested, and the Potency was inconclusive: 11.2 µM [inhibitor, partial curve].
For CC(=O)c1ccc(NC(=O)c2c3c(nc4ccccc24)C(=O)N(C2CCCCC2)C3)cc1, the Potency was “inactive”.
For COc1ccc(C(=S)N2CCN(C)CC2)cc1Br, the Potency was “inactive”.
CC(C)(C)NC(=O)CCN(/N=C/c1ccccc1)C1=NS(=O)(=O)c2ccccc21 was tested, and the Potency was inconclusive: 14.1 µM [inhibitor, single point].
With Cc1cc(C)cc(-n2c(C)cc(/C=N/NC(=O)CSc3ncccn3)c2C)c1 the Potency was inconclusive: 14.1 µM [inhibitor, single point].
Cc1ccccc1N1C(=O)C(Oc2ccc(Cl)cc2)C1CNC(C)(C)C (stereo unspecified) was tested, and the Potency was inconclusive: 8.91 µM [inhibitor, partial curve, poor fit].
CCOC(=O)c1cc(OC)c2cccc(CN3CCCC(C)(C(=O)NCCOC)C3)c2c1 (stereo unspecified) was tested, and the Potency was inconclusive: 12.6 µM [inhibitor, single point].
CCOc1ccc(C(=O)Nc2c(C(=O)Nc3ccccc3F)oc3ccccc23)cc1OCC was tested, and the Potency was “inactive”.
In the case of Cc1cccc(-n2nnc(C(=O)NCc3ccc4c(c3)OCO4)c2N)c1, the Potency is reported as inconclusive: 22.4 µM [inhibitor, single point].
For O=C(Cn1c(=O)n(-c2cccc(Cl)c2)c(=O)c2sc3ccccc3c21)N1CCCC1, the Potency was “inactive”.
With CCOC(=O)C1=C(C)NC2=C(C(=O)CCC2)C1c1cn(Cc2ccc(Cl)cc2Cl)nc1-c1ccccc1 (stereo unspecified) the Potency was inconclusive: 28.2 µM [inhibitor, single point].
Cc1ccc(C(=O)NC(=S)NNC(=O)c2ccccc2[N+](=O)[O-])cc1 was tested, and the Potency was “inactive”.
With CSc1cccc(NCc2ccc([N+](=O)[O-])cc2)c1 the Potency was inconclusive: 7.08 µM [inhibitor, partial curve, poor fit].
Cc1cc(C)c(Cn2c3ccccc3c3cnn(CC(=O)N4CCCCCC4)c(=O)c32)c(C)c1 was tested, and the Potency was “inactive”.
For CCc1n[nH]c(=S)n1/N=C/c1ccc(-c2ccc(Br)cc2)o1, the Potency was “inactive”.
With O=c1c2ccccc2nc(-c2ccoc2)n1CCc1ccccc1 the Potency was inconclusive: 10 µM [inhibitor, partial curve, poor fit].
With O=C(N/N=C/c1c[nH]c2ccccc12)c1cc2ccccc2o1 the Potency was inconclusive: 3.98 µM [inhibitor, partial curve, poor fit].
In the case of CCN1CCN(S(=O)(=O)c2ccc(Cl)c(C(=O)N(C)C(c3ccccc3)c3ccccc3)c2)CC1, the Potency is reported as inconclusive: 5.01 µM [inhibitor, partial curve, poor fit].
With Cn1cc(S(=O)(=O)c2ccccc2)c(=O)c2cc(F)c(N3CCN(c4ccccc4)CC3)cc21 the Potency was “inactive”.
In the case of Cc1ccc(NC(=O)COc2ccccc2[N+](=O)[O-])nc1, the Potency is reported as inconclusive: 6.31 µM [inhibitor, partial curve, poor fit].
In the case of COc1ccc(NC(=O)Cn2nnc(-c3ccccc3NS(=O)(=O)c3ccc(OC)cc3)n2)cc1, the Potency is reported as inconclusive: 3.55 µM [inhibitor, single point].
With Nc1cccc(OCCCCCOc2cccc(N)c2)c1 the Potency was inconclusive: 12.6 µM [inhibitor, partial curve, poor fit].
With CC(C)(C)C1CCC(=O)N2CCC[C@]2(c2ccccc2)C1 (stereo partly specified) the Potency was inconclusive: 31.6 µM [inhibitor, single point].
With CCN(CC)S(=O)(=O)c1ccc(C)c(NC(=S)NNC(=O)C2CC2)c1 the Potency was “inactive”.
For c1cncc(-c2nn3c(Cn4nnc5ccccc54)nnc3s2)c1, the Potency was “inactive”.
For Cc1ccc(S(=O)(=O)N2CCN(C(=O)/C=C/c3ccccc3)CC2)cc1C, the Potency was inconclusive: 15.8 µM [inhibitor, single point].
C/C(=N\NC(=O)c1nnn(-c2nonc2N)c1-c1ccc2c(c1)OCO2)c1ccc(C)cc1 was tested, and the Potency was inconclusive: 1.12 µM [inhibitor, full curve, poor fit].
With CCOC(=O)[C@]12CCCC=C1N(Cc1ccc(Cl)cc1Cl)C(=O)[C@H](CC(=O)NCCc1ccccc1OC)C2 the Potency was inconclusive: 12.6 µM [inhibitor, partial curve, poor fit].
CCOC(=O)c1csc(N/N=C2\CCCc3ccccc32)n1 was tested, and the Potency was inconclusive: 12.6 µM [inhibitor, partial curve, poor fit].
For Cc1cc(Cl)c(OCCOCCN2CCCC(C)C2)c(Br)c1 (stereo unspecified), the activity change, negative = inhibition was inconclusive: -62.3% [inhibitor] [at 7.66 µM].
With O=C(Nc1nccs1)C1CC=CCC1C(=O)OCC(F)(F)C(F)F (stereo unspecified) the Potency was “inactive”.
Cc1ccc(-n2c(C)nc3c(cnn3-c3ccccc3C)c2=O)cc1F was tested, and the Potency was inconclusive: 12.6 µM [inhibitor, single point].
